Results published in the RNAGym collection of RNA variant scans (doi:10.1073/pnas.2313332121).
Variants at the background level are over-represented here.

B1: TPR 5TU (parent)
chain: GGAUCUUCUCGAUCUAACAAAAAAGACAAAUCUGCCACAAAGCUUGAGAGCAUCUUCGGAUGCAGAGGCGGCAGCCUUCGGUGGCGCGAUAGCGCCAACGUUCUCAACUAUGACACGCAAAACGCGUGCUCCGUUGAAUGGAGUUUAUCAUG

Variants of: B1
Assay: polymerase ribozyme fitness, log enrichment relative to wild type (log ratio); higher = more active; in vitro selection for triplet polymerase activity
Procedure, shortened: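 Both subunits of a heterodimeric triplet polymerase ribozyme were given their own mutant library, built by PCR and transcribed. Each library was annealed with a biotinylated primer, the partner subunit and triplets, incubated frozen at −7 °C, and its extended constructs gel-excised, captured on streptavidin beads and amplified by RT-PCR, all in one round done in triplicate. Fitness is the logarithm of genotype enrichment relative to wild-type enrichment, with replicates averaged by inverse-variance weighting. That logarithm is base 2, and Illumina-sequenced genotypes needed ≥10 input reads and ≥1 read per output.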

Variant	polymerase ribozyme fitness (log ratio)
G42A U55A G83A G94C G100U	≤ -4.2
G42A U56A C85A U104G	≤ -4.2
G42A U56A C95U U111G	-4
G42A U56A G67U G94A	≤ -4.2
G42A U56A G84A U127A	≤ -4.2
G42A U56G G59U G71C A107C U134G	≤ -4.2
G42A U111C	≤ -4.2
G42C A49U C87A A89C	≤ -4.2
G42C A52C C54U C96U	≤ -4.2
G42C A52G C57U G83C A113U G126A	≤ -4.2
G42C A60G A113U G140U	-3.85
G42C A60G C123G G126C U127C	≤ -4.2
G42C A64G G88A G94U C114G	≤ -4.2
G42C A66C	≤ -4.2
G42C A73G C76A A91U G92A C129A G152C	≤ -4.2
G42C A73U C85U G152U	≤ -4.2
G42C A91U U111A G128U	≤ -4.2
G42C A107C A120C U134A A150C	≤ -4.2
G42C A115U	≤ -4.2
G42C C43A G84A	≤ -4.2
G42C C54G A66G C75G G92A C105G C108U U130G G141A	≤ -4.2

Variant	polymerase ribozyme fitness (log ratio)
G42C C54U C72A G88C A91U A106U	≤ -4.2
G42C C54U G59U A60C U61A A91C C95A	≤ -4.2
G42C C63A A66C A115C G141U	≤ -4.2
G42C C63A C76U G81A C85A C87U C99A	≤ -4.2
G42C C63U G100U	≤ -4.2
G42C C69G A91C A115G	≤ -4.2
G42C C72U C93G	≤ -4.2
G42C C75A C132G	≤ -4.2
G42C C76U G141C	≤ -4.2
G42C C85A A110G A113U C116G A138U G143C	≤ -4.2
G42C C85G C99U	≤ -4.2
G42C C87A C103U U135C	≤ -4.2
G42C C87A G140C	≤ -4.2
G42C C87U C95U A120U	≤ -4.2
G42C C87U C116U	≤ -4.2
G42C C93A	≤ -4.2
G42C C93G C96U	≤ -4.2
G42C C93G U135G	≤ -4.2
G42C C93U	≤ -4.2
G42C C99G U146G	≤ -4.2
G42C C103A	≤ -4.2

Variant	polymerase ribozyme fitness (log ratio)
G42C C116G A120U A138G G141U G143A	≤ -4.2
G42C C149U	≤ -4.2
G42C G46A A91U C125A U148A	≤ -4.2
G42C G46A G50C G83C G94U U139G G140A G141C U144A	≤ -4.2
G42C G48A U55A C93U	≤ -4.2
G42C G48C A106U U145G	≤ -4.2
G42C G48C C85A C99G A106G G133U G141C	≤ -4.2
G42C G48U	≤ -4.2
G42C G48U U90C C93G C96A	≤ -4.2
G42C G50A U55A C85A C114U	≤ -4.2
G42C G50U A52G G92A	≤ -4.2
G42C G58C A73G C85U C95A A122U	≤ -4.2
G42C G59A A64U A73C U77C G84A C99U A120G	≤ -4.2
G42C G59U A98U	≤ -4.2
G42C G62A C76U C87A A89G	≤ -4.2
G42C G65C G68C C129A	≤ -4.2
G42C G68A C93G U144A U151A	≤ -4.2
G42C G70C G88C A91U G141A	≤ -4.2
G42C G80A C93G	≤ -4.2
G42C G83A	≤ -4.2
G42C G83A A106U	≤ -4.2

Variant	polymerase ribozyme fitness (log ratio)
G42C G86C C116U G141A	≤ -4.2
G42C G92A	≤ -4.2
G42C G92U A137U	≤ -4.2
G42C G94C G112C	≤ -4.2
G42C U44G U82C G133U	≤ -4.2
G42C U45A C87G	≤ -4.2
G42C U53A C57U C95U G133U	≤ -4.2
G42C U53A C79A G80C C95A	≤ -4.2
G42C U53A C79U C85G A89U C125U	≤ -4.2
G42C U53A C93U A147U	≤ -4.2
G42C U53A G83C G126U	≤ -4.2
G42C U55A G58A U61A C105U A115G A120G U145C C149A	≤ -4.2
G42C U55G G68C A106U	≤ -4.2
G42C U55G U61G C72U A73G G88U	≤ -4.2
G42C U56A C72G C76G	≤ -4.2
G42C U61A C76A U127A U144C U145C A150C	≤ -4.2
G42C U61A G88A C95U U104G	≤ -4.2
G42C U77A G140U U145A	≤ -4.2
G42C U82G C85U C99A A147C	≤ -4.2
G42C U90C	≤ -4.2
G42C U90G G136U U146A	≤ -4.2
